Experimental findings from article PMC4336329 (PLoS ONE, 2015) are described below.

Hit rate of the full screen: of about 310,000 compounds, about 14,000 (4.5%) showed an effect of 50% or more. Effects have a minus sign here. The list shows a part of the results.
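Also: peak tail current of the secondary pulse compared with the same well before compound.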

Chain of human ether-à-go-go-related gene (hERG) potassium channel (Q12809 whole entry, looked up): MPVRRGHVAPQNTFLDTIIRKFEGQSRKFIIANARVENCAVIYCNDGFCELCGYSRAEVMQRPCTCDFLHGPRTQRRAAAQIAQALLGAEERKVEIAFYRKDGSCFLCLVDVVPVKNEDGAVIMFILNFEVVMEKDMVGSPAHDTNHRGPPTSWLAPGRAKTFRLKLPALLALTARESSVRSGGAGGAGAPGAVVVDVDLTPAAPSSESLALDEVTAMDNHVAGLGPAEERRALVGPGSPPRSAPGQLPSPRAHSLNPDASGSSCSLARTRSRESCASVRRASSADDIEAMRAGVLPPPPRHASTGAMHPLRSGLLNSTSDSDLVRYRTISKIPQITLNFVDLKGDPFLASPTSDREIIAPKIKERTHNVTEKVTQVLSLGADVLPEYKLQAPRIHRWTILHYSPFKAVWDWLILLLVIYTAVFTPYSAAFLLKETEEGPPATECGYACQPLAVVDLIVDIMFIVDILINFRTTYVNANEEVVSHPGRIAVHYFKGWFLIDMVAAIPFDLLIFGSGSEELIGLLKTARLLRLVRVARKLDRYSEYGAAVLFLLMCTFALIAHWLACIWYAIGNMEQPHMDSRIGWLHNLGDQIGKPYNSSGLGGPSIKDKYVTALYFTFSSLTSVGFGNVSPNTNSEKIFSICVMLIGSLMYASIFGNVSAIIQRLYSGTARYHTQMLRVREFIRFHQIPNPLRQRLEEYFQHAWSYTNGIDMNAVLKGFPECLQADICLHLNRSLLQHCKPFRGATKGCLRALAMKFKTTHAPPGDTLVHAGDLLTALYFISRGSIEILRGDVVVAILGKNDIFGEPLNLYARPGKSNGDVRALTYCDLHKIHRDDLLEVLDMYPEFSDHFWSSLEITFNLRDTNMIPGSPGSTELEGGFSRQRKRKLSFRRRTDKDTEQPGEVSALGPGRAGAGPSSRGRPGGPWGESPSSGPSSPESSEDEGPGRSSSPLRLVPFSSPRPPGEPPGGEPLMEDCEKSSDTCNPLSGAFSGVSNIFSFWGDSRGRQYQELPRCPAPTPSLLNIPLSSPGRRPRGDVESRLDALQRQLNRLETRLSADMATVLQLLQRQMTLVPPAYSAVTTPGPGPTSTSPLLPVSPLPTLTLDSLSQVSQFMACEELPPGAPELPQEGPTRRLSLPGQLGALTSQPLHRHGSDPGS

This assay addresses human ether-à-go-go-related gene (hERG) potassium channel (human, UniProt Q12809). Briefly: primary screen, population patch clamp on CHO cells stably expressing hERG.
Consider `CC1=CC(C)(C)NC(=S)N1c1ccc(C)c(C)c1`, for which the “hERG current change (%, negative = inhibition) at 10uM” value is recorded as 13.3%.
Take `COc1ccc(CCNc2c(N)n(Cc3ccccc3)c(=O)[nH]c2=O)cc1OC`: the “hERG current change (%, negative = inhibition) at 10uM” value was -30.8%.
With `O=C(COC(=O)/C=C/c1ccc(Br)o1)Nc1ccc2[nH]c(=O)[nH]c2c1`, the “hERG current change (%, negative = inhibition) at 10uM” value is recorded as -8.22%.
For the molecule `COC(=O)C1=C(c2ccc(-c3ccccc3)c(F)c2)C[C@@H]2CC[C@H]1N2C(=O)NC(C)C`, the “hERG current change (%, negative = inhibition) at 10uM” value is -16.8%.
Consider `CC(Oc1ccc2c3c(c(=O)oc2c1)CCCC3)C(=O)NC1CC(C)(C)NC(C)(C)C1` (centres unmarked), for which the “hERG current change (%, negative = inhibition) at 10uM” value came to 5.14%.
On to `CC1CC(C)CN(CCC(=O)Nc2ccc3c(c2)CCC3)C1.Cl` (centres unmarked), for which the “hERG current change (%, negative = inhibition) at 10uM” value is on record as -43.6%.
As to `COc1ccc(Cl)cc1S(=O)(=O)NC(C)C(=O)NCc1cccnc1` (centres unmarked), the “hERG current change (%, negative = inhibition) at 10uM” value is -18.5%.
For `CC(=O)N1CCc2cc(S(=O)(=O)CCC(=O)N3CCN(c4cc(C)ccc4C)CC3)ccc21`, the “hERG current change (%, negative = inhibition) at 10uM” value is reported as -17.7%.
To `Cc1cccn2c(=O)c3cc(C(=O)NC4CCCC4)c(=N)n(C4CCCCC4)c3nc12` belongs -80.7%; to `COc1ccc(C(=O)Cn2c(=O)oc3ccc(C)cc32)cc1`, 4.78%.
Turning to `O=C(CC1SCCNC1=O)Nc1ccc(Cl)cc1` (centres unmarked), the “hERG current change (%, negative = inhibition) at 10uM” value is 11.3%.
In the case of `O=C(CN1C(=O)CCSc2ccccc21)Nc1ccc(F)cc1`, the “hERG current change (%, negative = inhibition) at 10uM” value was -15.7%.
Turning to `CC(C)NC(=O)CSc1nc(N)c(NC(=O)c2ccccc2F)c(=O)[nH]1`, the “hERG current change (%, negative = inhibition) at 10uM” value was found to be 17.1%.
With `CC(C)NC(=O)COC(=O)c1cncc(Br)c1`, the “hERG current change (%, negative = inhibition) at 10uM” value amounted to 15.8%.
Consider `CCN1CCN(c2ccc(S(=O)(=O)N3CCCCC3)cc2NC(=O)c2cccc(C)c2[N+](=O)[O-])CC1`, for which the “hERG current change (%, negative = inhibition) at 10uM” value is recorded as -28.8%.
As for `O=C(CCCCl)NC1=NN(c2ccccc2)C(=O)C1`, the figure is -4.99%; as for `CCc1ccc(/C=C/C(=O)c2c(C)cc(C)[nH]c2=O)cc1`, 4.8%.
On to `O=C(O)C(=O)O.OC(CNCCc1ccc(Cl)cc1Cl)COc1ccccc1` (centres unmarked), for which the “hERG current change (%, negative = inhibition) at 10uM” value is recorded as -25.7%.
`Cc1nnsc1C(=O)N/N=C/c1ccccc1`: the “hERG current change (%, negative = inhibition) at 10uM” value is listed as 4.89%.
Consider `CCN(CC)CCCNC(=S)N1CCN(c2nc3ccccc3n2CC)CC1`, for which the “hERG current change (%, negative = inhibition) at 10uM” value is listed as -5.2%.
As for `COCc1cc(=O)n2[nH]c(-c3cccs3)cc2n1`, the “hERG current change (%, negative = inhibition) at 10uM” value was -2.66%.
Regarding `COc1ccc(C2=CC(c3cc(OC)c(OC)c(OC)c3)NC(=S)N2)cc1` (centres unmarked), the “hERG current change (%, negative = inhibition) at 10uM” value is 4.19%.
As for `Cc1sc(NC(=O)C2CCCCC2C(=O)O)c(C(N)=O)c1-c1ccc(C(C)(C)C)cc1` (centres unmarked), the figure is -3.15%.
As for `Cc1nn(-c2cccc(C(F)(F)F)c2)c(=O)c2noc(C)c12`, the “hERG current change (%, negative = inhibition) at 10uM” value is -2.01%.
For `CC(=O)Nc1ccc(NC(=O)CSc2nnc(C3CC3)n2C)cc1`, the “hERG current change (%, negative = inhibition) at 10uM” value was found to be 3.93%.
In the case of `O=C(Nc1ccccc1Cl)N1CCSc2ccccc21`, the “hERG current change (%, negative = inhibition) at 10uM” value is -14.4%.
As for `CC(=O)c1cccc(-n2nnnc2SCC(=O)NNC(=O)C2CCCCC2)c1`, the “hERG current change (%, negative = inhibition) at 10uM” value is listed as 6.96%.
For the molecule `COc1cccc(C2(O)CCN(C(=O)c3cccs3)CC2)c1`, the “hERG current change (%, negative = inhibition) at 10uM” value was -1.99%.
As for `Cn1nc(C(=O)NNc2c(F)c(F)cc(F)c2F)c2ccccc2c1=O`, the figure is -6.18%; as for `CCOc1c2ccc(C(=O)NCCCCc3ccccc3)cc2nn1C`, -14.5%.
Turning to `O=C(NCCCN1CCOCC1)C1(c2ccccc2)CCOCC1`, the “hERG current change (%, negative = inhibition) at 10uM” value is given as 19.7%.
Regarding `O=C1CC(c2ccccc2)CC(O)=C1C=NCCN1CCN(C(=O)Cc2ccccc2)CC1` (centres unmarked), the “hERG current change (%, negative = inhibition) at 10uM” value is -53%.
As for `COc1ccc(NS(=O)(=O)c2ccc(C)c(C(=O)N(C)Cc3ccc(C)cc3)c2)cc1`, the “hERG current change (%, negative = inhibition) at 10uM” value is given as -30.2%.
As to `O=C(NCc1ccccc1)C(c1cccnc1)N(C(=O)c1ccccn1)c1ccccc1F` (centres unmarked), the “hERG current change (%, negative = inhibition) at 10uM” value is 9.22%.
Turning to `Cc1noc(NS(=O)(=O)c2ccc(N/C=C\C(=O)c3cccc4ccccc34)cc2)c1C`, the “hERG current change (%, negative = inhibition) at 10uM” value is -8.77%.
With `O=C(CCCCCn1nnc2ccccc2c1=O)Nc1ccccc1Cl`, the “hERG current change (%, negative = inhibition) at 10uM” value turned out to be 26.8%.
Turning to `Cc1cc2ccccc2n1CCNC(=O)COc1ccccc1`, the “hERG current change (%, negative = inhibition) at 10uM” value is -33.2%.
As to `CN(CC(=O)Nc1ccc(F)c(F)c1F)C1CCCCC1`, the “hERG current change (%, negative = inhibition) at 10uM” value was -52.5%.
To `CCCn1c(NCc2ccccc2NS(=O)(=O)c2ccc(C)cc2)nc2ccccc21` belongs 6.84%; to `CCOC(=O)C1CCN(C(=O)Cn2nc(C)c3c(C)n(-c4ccccc4)nc3c2=O)CC1`, -13.9%; to `Cc1cc(N2CCC(C(=O)NCC3CC3)CC2)nc(-c2ccccc2)n1`, -73.1%.
`COCCOC(=O)c1c(NC(=O)CSc2cccc[n+]2[O-])sc(C(N)=O)c1C`: the “hERG current change (%, negative = inhibition) at 10uM” value is 72%.
As to `O=C(NCc1ccco1)c1ccc(S(=O)(=O)c2cccc(S(=O)(=O)N3CCOCC3)c2)cc1`, the “hERG current change (%, negative = inhibition) at 10uM” value was found to be 2.58%.
As for `COc1ccc(NC(=O)COc2cccc3c2OC(C)(C)C3)cc1OC`, the “hERG current change (%, negative = inhibition) at 10uM” value worked out at 6.43%.
For `COc1cc(NC(=O)C2CCN(S(=O)(=O)c3cccnc3)CC2)cc(OC)c1OC`, the “hERG current change (%, negative = inhibition) at 10uM” value is -17.1%.
As to `Cc1[nH]c2ccccc2c1C(=O)CSCC(=O)O`, the “hERG current change (%, negative = inhibition) at 10uM” value is on record as -1.3%.
With `CCC(=O)c1ccc(N2CCN(C(=O)c3cccs3)CC2)c(F)c1`, the “hERG current change (%, negative = inhibition) at 10uM” value is given as -51.6%.
In the case of `CC(C)CC(=O)Nc1sc2c(c1C#N)CC(C)(C)NC2(C)C`, the “hERG current change (%, negative = inhibition) at 10uM” value is on record as -12.7%.
As to `Cc1ccc2[nH]c(=O)c(CN(Cc3ccc4c(c3)OCO4)Cc3nnnn3Cc3ccco3)cc2c1`, the “hERG current change (%, negative = inhibition) at 10uM” value was -5.61%.
In the case of `CCNc1sc(C(=O)c2cccs2)c(N)c1C#N`, the “hERG current change (%, negative = inhibition) at 10uM” value is on record as 9.68%.
Consider `CCC(C)(C(=O)NC1CCCC1)N(Cc1cccs1)C(C)=O` (centres unmarked), for which the “hERG current change (%, negative = inhibition) at 10uM” value stood at 9.95%.
`CC(=O)c1cn(CCCOc2ccccc2)c2ccccc12`: the “hERG current change (%, negative = inhibition) at 10uM” value is -6.84%.
As for `COc1ccc(CNC(=O)CC23CC4CC(CC(C4)C2)C3)cc1`, the “hERG current change (%, negative = inhibition) at 10uM” value turned out to be 20.4%.
To `COc1ccc(N2CCN(CCC(N)=O)CC2)cc1` belongs 3.39%; to `CCOC(=O)Cc1ccc(NC(=O)c2ccc(C(C)(C)C)cc2)cc1`, -8.19%; to `COc1ccc(/C=N/Nc2ccc(C(F)(F)F)cc2[N+](=O)[O-])cc1`, 5.35%.
